Structures are written as SMILES. Hit rate of the full screen: of about 150,000 compounds, about 540 (0.36%) showed an effect of 50% or more. Some of the results follow.

One may read the % Inhibition as the drop in the measured response relative to a control, in per cent.

The test system of the assay is Plasmodium falciparum. Kind of assay: Primary screen in NF54 nanoGlo assay, in single point, at 2uM, 72h; a lower Z score goes with more inhibition. The format is functional, Erythrocyte. Particulars: timepoint 72 hour.
Turning to `COc1ccc(NC(=O)Cn2cc(NC(=O)OC(C)(C)C)nn2)cc1`, the “% Inhibition” value is reported as -6% and the Z score amounted to 0.86.
The corresponding values for `Cc1cnn(C[C@H](C)NCc2cn3ccccc3c2C#N)c1` are -17% and 2.28.
Take `CCN1CCN(c2c(CN(CCOC)C(=O)CCC3CCCC3)c(C)nn2-c2cccc(F)c2)CC1`: the “% Inhibition” value is -8% and the Z score is recorded as 1.13.
The like results for `CC(=O)c1ccc(F)c(-c2cc(C)cc3c2O[C@@H](CNC(=O)c2ccco2)C3)c1` were, in that order, 0% and -0.08.
The like results for `Cc1csc([C@H](C)N(C)C(=O)c2ccc(-n3cnnc3)nc2)n1` were, in that order, -12% and 1.57.
The corresponding values for `COc1cc(C[C@@]2(CCC(=O)N3CCCC3)CCC(=O)N2)ccc1F` are 14% and -1.72.
Turning to `Cc1cc2c(cc1C)[C@@H](N(C(=O)CCOC(C)C)C1CC1)CCCO2`, the “% Inhibition” value is on record as -4% and the Z score amounted to 0.71.
The corresponding values for `CCC(CO)NC(=O)Cc1ccc(NC2CCCC(C#N)C2)cc1` (stereo unspecified) are -4% and 0.6.
The like results for `O=C(NCC1CCOCC1)c1ccc(-c2ccc(C(F)(F)F)cn2)cc1` were, in that order, 1% and -0.21.
The corresponding values for `COc1cccc([C@@H](CNC(=O)c2cc(C3CC3)nc3onc(C)c23)c2c[nH]c3ccccc23)c1OC` are -12% and 2.27.
As to `Cc1cccc(C)c1OCc1cc(C(=O)NC2CCC2)no1`, the “% Inhibition” value is recorded as -13% and the Z score is 1.49.
The corresponding values for `COc1ccc(C(=O)N2C[C@@H](COc3ccccc3)[C@H](C(N)=O)C2)cn1` are -8% and 1.14.
The like results for `CC(C)C[C@H](C)NC(=O)CNc1ccc(S(N)(=O)=O)cc1F` were, in that order, -16% and 1.75.
The corresponding values for `Cc1ccc([C@H]2CN(C(=O)c3scc4c3OCCO4)C[C@@H]2N(C)C)cc1` are -13% and 1.57.
For the molecule `O=C(Cn1cnc2ccccc2c1=O)Nc1ccc2c(c1)CCC2`, the “% Inhibition” value is on record as -12% and the Z score was found to be 1.88.
On to `CC(C)(O)Cn1ncnc1CCCCc1ccccc1`, for which the “% Inhibition” value is given as -13% and the Z score came to 1.78.
The like results for `Cc1cnn(Cc2nc(-c3ccccc3Cl)oc2C)c1` were, in that order, -7% and 1.01.
As for `Cc1nnc2c(NC(=O)C3CCCC3)cccn12`, the “% Inhibition” value is listed as -3% and the Z score stood at 0.53.
The like results for `CCCc1ncncc1C(=O)N[C@@H]1COCC[C@@H]1Oc1cccc(F)c1` were, in that order, -4% and 0.68.
The like results for `Cc1ccccc1N1CCN(C(=O)c2cn3c(n2)CCCC3)CC1` were, in that order, -6% and 0.91.
For `Cc1csc(C2(NCc3ccc(C)c(Cl)c3)CCOCC2)n1`, the “% Inhibition” value is reported as 5% and the Z score is reported as -0.72.
The corresponding values for `N[C@H]1CCC[C@@H](c2ncnn2Cc2ccc(F)cc2)C1` are 0% and -0.06.
The corresponding values for `C#CCN(Cc1csc(CCC)n1)Cc1ccco1` are -7% and 0.83.

Source of the values: ChEMBL document CHEMBL4888484, “Replenishing the malaria drug discovery pipeline: Screening and hit evaluation of the MMV Hit Generation Library 1 (HGL1) against asexual blood stage Plasmodium falciparum ,using a nano luciferase reporter read-out” (2022).
